Some of the results follow.

One assay deals with HSkMC. The assay can be described thus: cytotoxicity call (relative viability < 0.9). The settings on record: 10 µM.
In another assay the test system is S. aureus RN4220. The assay can be described thus: growth inhibition call (relative growth <= 0.2). The conditions noted are these: 50 µM.

Turning to `C=CCN1C(=O)[C@]2(O[C@H](CCO)[C@@H]([Si](C)(C)c3ccc(OC)cc3)[C@@H]2C)c2cc(NC(=O)[C@H](C)O)ccc21`, in the assay on HSkMC, the cytotoxicity call is “inactive”. In addition, the growth inhibition call in the assay on S. aureus RN4220 was “inactive”.

On to `CC(C)NC(=O)Nc1ccc2c(c1)CC(=O)N([C@@H](C)CO)C[C@H](C)[C@H](CN(C)Cc1ccc(Oc3ccccc3)cc1)O2`, for which the cytotoxicity call in the assay on HSkMC is “inactive”. Also, the growth inhibition call with S. aureus RN4220 is “inactive”.

`CC(C)NC(=O)Nc1ccc2c(c1)C(=O)N([C@H](C)CO)C[C@@H](C)[C@H](CN(C)C(=O)Nc1cccc3ccccc13)OCCCC[C@H](C)O2`: in the assay with HSkMC, the cytotoxicity call was “inactive”. For the same compound, the growth inhibition call with S. aureus RN4220 is “inactive”.

As to `CC1(C)C[C@@](CCN)(Cc2ccccc2)CCO1`, the cytotoxicity call with HSkMC was “inactive”. In the assay on S. aureus RN4220, the growth inhibition call was “inactive”.

As for `CC(C)NC(=O)Nc1cccc2c1O[C@@H](CN(C)S(=O)(=O)c1ccc(Cl)cc1)[C@@H](C)CN([C@H](C)CO)C2=O`, the cytotoxicity call with HSkMC was “inactive”. Besides, in the assay with S. aureus RN4220, the growth inhibition call was “inactive”.

As to `Cc1noc(C)c1NC(=O)N(C)C[C@H]1Oc2c(NC(=O)Cn3cnnn3)cccc2C(=O)N([C@H](C)CO)C[C@@H]1C`, the cytotoxicity call in the assay with HSkMC is “inactive”. The growth inhibition call with S. aureus RN4220 was “inactive”.

Consider `Nc1cccc(OCc2ccccc2)c1`, for which the cytotoxicity call in the assay on HSkMC is “inactive”. Moreover, in the assay with S. aureus RN4220, the growth inhibition call was “inactive”.

In the case of `C=CCC[C@H](Cc1ccc(F)cc1)C(=O)O[C@@H](CNC(=O)[C@H](CC=C)CC(=O)N(CCO)Cc1ccccc1)c1ccccc1`, the cytotoxicity call in the assay with HSkMC was “inactive”. Moreover, the growth inhibition call in the assay on S. aureus RN4220 was “inactive”.

In the case of `C[C@@H]1CN([C@H](C)CO)C(=O)c2cccc(NC(=O)c3nc4ccccc4s3)c2O[C@H]1CN(C)C(=O)Nc1ccc(C(F)(F)F)cc1`, the cytotoxicity call with HSkMC is “inactive”. Also, in the assay with S. aureus RN4220, the growth inhibition call is “inactive”.

With `CC(C)NC(=O)N(C)C[C@H]1OCCCC[C@@H](C)Oc2ccc(NC(=O)Nc3ccc(C(F)(F)F)cc3)cc2C(=O)N([C@H](C)CO)C[C@@H]1C`, in the assay on HSkMC, the cytotoxicity call was “inactive”. The growth inhibition call with S. aureus RN4220 is “inactive”.

Regarding `Cc1ccc(S(=O)(=O)N(C)C[C@@H]2OCCCC[C@H](C)Oc3ccc(NC(=O)NC4CCCCC4)cc3C(=O)N([C@@H](C)CO)C[C@@H]2C)cc1`, in the assay on HSkMC, the cytotoxicity call is “inactive”. Besides, the growth inhibition call in the assay on S. aureus RN4220 is “inactive”.

Regarding `COc1ccc([Si](C)(C)[C@@H]2[C@@H](CC(=O)N(CCO)Cc3ccccc3)O[C@]3(C(=O)N(C)c4c(Br)cc(C)cc43)[C@H]2C)cc1`, the cytotoxicity call in the assay on HSkMC was “inactive”. For the same compound, in the assay on S. aureus RN4220, the growth inhibition call was “inactive”.

Consider `C[C@@H]1CN([C@@H](C)CO)C(=O)c2cc(NS(=O)(=O)c3ccc(Cl)cc3)ccc2O[C@@H](C)CCCCO[C@H]1CN(C)C(=O)CCC(F)(F)F`, for which the cytotoxicity call in the assay on HSkMC is “inactive”. In addition, the growth inhibition call with S. aureus RN4220 was “inactive”.

Consider `C[C@@H]1CN([C@H](C)CO)C(=O)c2cccc(NS(=O)(=O)c3ccc(F)cc3)c2O[C@H]1CN(C)S(=O)(=O)c1ccccc1`, for which, in the assay with HSkMC, the cytotoxicity call is “inactive”. For the same compound, the growth inhibition call with S. aureus RN4220 was “inactive”.

For the compound `C[C@H](CO)N1C[C@H](C)[C@@H](CN(C)C(=O)NC2CCCCC2)Oc2ccc(NC(=O)Nc3ccc(C(F)(F)F)cc3)cc2CC1=O`, in the assay with HSkMC, the cytotoxicity call was “inactive”. Besides, the growth inhibition call in the assay with S. aureus RN4220 was “inactive”.

For `Cc1noc(C)c1NC(=O)Nc1cccc2c1O[C@@H](CN(C)Cc1ccc(C(=O)Nc3ccccc3N)cc1)[C@H](C)CN([C@@H](C)CO)C2=O`, the cytotoxicity call with HSkMC was “inactive”. In addition, the growth inhibition call in the assay with S. aureus RN4220 is “inactive”.

With `CCOc1nc2cccc(C(=O)OCc3oc(=O)oc3C)c2n1Cc1ccc(-c2ccccc2-c2noc([O-])n2)cc1.[K+]`, the cytotoxicity call in the assay with HSkMC is “inactive”. For the same compound, in the assay on S. aureus RN4220, the growth inhibition call is “inactive”.

Take `COc1ccc2c3c([nH]c2c1)[C@@H](CO)N(C[C@]13CN(C1)S(=O)(=O)c1cn(cn1)C)C(=O)Nc1ccc(cc1)F`: the cytotoxicity call in the assay on HSkMC was “inactive”. In addition, in the assay on S. aureus RN4220, the growth inhibition call was “inactive”.

As to `C[C@@H]1CCCCO[C@H](CN(C)S(=O)(=O)c2cccs2)[C@H](C)CN([C@H](C)CO)C(=O)c2cc(NC(=O)NC3CCCCC3)ccc2O1`, in the assay on HSkMC, the cytotoxicity call was “inactive”. In the assay with S. aureus RN4220, the growth inhibition call is “inactive”.

Regarding `Cl.N=C(N)NC(=N)NCCc1ccccc1`, the cytotoxicity call in the assay on HSkMC was “inactive”. For the same compound, the growth inhibition call in the assay with S. aureus RN4220 is “inactive”.

Take `C[C@H]1CN([C@@H](C)CO)C(=O)Cc2cc(NC(=O)CCCCCC(=O)Nc3ccccc3N)ccc2O[C@H]1CN(C)Cc1ccc(Oc2ccccc2)cc1`: the cytotoxicity call in the assay on HSkMC (human skeletal muscle cells) is “inactive”. In addition, in the assay on S. aureus RN4220, the growth inhibition call is “inactive”.

Consider `Cc1cc2nc3c(=O)[nH]c(=O)nc-3n(C[C@@H](O)[C@@H](O)[C@@H](O)CO)c2cc1C`, for which the cytotoxicity call in the assay with HSkMC was “inactive”. In addition, the growth inhibition call in the assay with S. aureus RN4220 is “inactive”.

As for `CCOC(=O)[C@H]1CSCCN1`, the cytotoxicity call with HSkMC was “inactive”. Also, the growth inhibition call in the assay on S. aureus RN4220 was “inactive”.

On to `CC(C)NC(=O)N(C)C[C@H]1Oc2c(NS(=O)(=O)c3ccc(F)cc3)cccc2C(=O)N([C@H](C)CO)C[C@@H]1C`, for which the cytotoxicity call with HSkMC is “inactive”. In addition, the growth inhibition call in the assay on S. aureus RN4220 is “inactive”.

`CC(=O)c1ccc(O)c(C(N)=O)c1`: the cytotoxicity call with HSkMC was “inactive”. In the assay on S. aureus RN4220, the growth inhibition call was “inactive”.

As to `Clc1ccc(/C=C/C2=Nc3cccc4cccc(c34)N2)cc1`, in the assay with HSkMC, the cytotoxicity call is “inactive”. Also, in the assay on S. aureus RN4220, the growth inhibition call is “inactive”.

For the compound `COc1ccc(NC(=O)N(C)C[C@@H]2Oc3ccc(NS(C)(=O)=O)cc3C(=O)N([C@H](C)CO)C[C@H]2C)cc1`, the cytotoxicity call with HSkMC was “inactive”. Besides, the growth inhibition call with S. aureus RN4220 is “inactive”.

For `C[C@H](CO)N1C[C@H](C)[C@@H](CN(C)C(=O)C2CCCCC2)OCCCC[C@H](C)Oc2ccc(NC(=O)Nc3ccc(C(F)(F)F)cc3)cc2C1=O`, the cytotoxicity call with HSkMC was “inactive”. Moreover, the growth inhibition call with S. aureus RN4220 was “inactive”.

(Values after the antibiotic and cytotoxicity screens of Wong et al. (2023).)
